Measured values reported in ChEMBL document CHEMBL4888484, “Replenishing the malaria drug discovery pipeline: Screening and hit evaluation of the MMV Hit Generation Library 1 (HGL1) against asexual blood stage Plasmodium falciparum ,using a nano luciferase reporter read-out” (2022).
The campaign covered roughly 150,000 compounds. About 540 (0.36%) showed an effect of 50% or more. The list shows a part of the results.

test system: Plasmodium falciparum; assay: Primary screen in NF54 nanoGlo assay, in single point, at 2uM, 72h; a lower Z score goes with more inhibition; assay type: functional, Erythrocyte; conditions: timepoint 72 hour

| SMILES | % Inhibition | Z score |
| --- | --- | --- |
| Cc1nnc(CN(C)C(=O)CO[C@H](c2ccccc2)C(F)(F)F)o1 | -9% | 1.32 |
| Cc1cc(=O)cc(O)n1CCc1noc(Cn2ccccc2=O)n1 | -2% | 0.42 |
| O=C(NCCN1CCOCC1)C1CCN(Cc2cccnc2)CC1 | 3% | -0.48 |
| CCOCCCNC(=NCCOC)NCc1cccc(OC)c1 | 3% | -0.5 |
| COc1cccc(Cn2c(=O)c3sccc3n(CC(=O)Nc3ccc4c(c3)OCO4)c2=O)c1 | 39% | -1.43 |
| CCNS(=O)(=O)C1CCN(C(C)C(=O)N2CCc3ccccc3C2)C1 (stereo not drawn) | -4% | 0.59 |
| Cc1ccc(C)c(OCCN(C)Cc2ncccc2C(=O)O)c1 | -10% | 2.01 |
| Cc1c[nH]c(CNC(=O)N(Cc2ccc(F)cc2)C2CCCCC2)n1 | -10% | 0.97 |
| COc1cc([C@@H]2C=C(c3ccc(Cl)cc3)Nc3ncnn32)ccc1OCc1ccc(Cl)cc1 | 44% | -5.72 |
| COc1cccc(CNCc2cc3ccccc3nc2N2CCCCC2)c1 | -9% | 1.68 |
| CC(C)Cc1nc(CN2C[C@@H]3C[C@H]2C(=O)N3c2cccc(Cl)c2)no1 | -5% | 0.69 |
| C=CCN(C)c1nc(COCC)nc2c1CCN(Cc1ccoc1)CC2 | -1% | 0.23 |
| CC1CC(NCc2ccnc(N(C)C)n2)CN(C(=O)OC(C)(C)C)C1 (stereo not drawn) | -2% | 0.48 |
| CC(C)n1cnnc1-c1nn(C)c2c1CN(C(=O)c1ccco1)CC2 | -22% | 3.2 |
| Cc1noc(C)c1[C@H]1CC(=O)Nc2c1cnn2C1CCCC1 | 19% | -2.31 |
| Cc1nn(C)c(C)c1CCCNC(=O)N1CCC(c2ccccc2)C1C (stereo not drawn) | -3% | 0.42 |
| COCCCNC(=O)Nc1ccn(C2CCCCC2)n1 | -4% | 0.37 |
| Cc1ccc(-c2csc(NC(=O)c3ccsc3)n2)c(C)c1 | 0% | 0.07 |
| COCc1cc(C(=O)NS(=O)(=O)c2cccnc2)c(C)o1 | -16% | 1.32 |
| CCN1Cc2nc(OC)c(CNC(=O)N3CCCCCCC3)cc2C1=O | 0% | -0.06 |
| COc1cccn2ncc(C(=O)N(C[C@H]3CCC(=O)N3)C(C)C)c12 | 13% | -2.41 |
| O=C(c1nc(-c2cccc(C(F)(F)F)c2)cs1)N1CC(F)C1 | -11% | 1.48 |
| CC(C)[C@H](Cn1nccn1)NC(=O)c1ccc(C(C)(C)C)cc1 | -6% | 0.99 |
| COc1ccc(-c2nc(NCCN3CCOCC3)nc3nn(-c4ccc(F)cc4)c(N)c23)cc1OC | -6% | 0.56 |
| COc1cc(C#CC#CCN2CCCCC2)ccc1O | -4% | 0.63 |
| COCCN(C)S(=O)(=O)[C@H]1CCCN(Cc2cccc3[nH]ccc23)C1 | 1% | -0.14 |
| CC(=O)N(CCN1CCOCC1)[C@H]1CCN(S(=O)(=O)c2cccc(Cl)c2)C1 | 43% | -4.85 |

| SMILES | % Inhibition | Z score |
| --- | --- | --- |
| COc1ccccc1N1C(=O)C2C(C1=O)C2(c1ccccc1)c1ccccc1 (stereo not drawn) | 1% | -0.07 |
| O=C(Nc1cc(F)ccc1N1CCCCC1)N[C@@H](CO)c1ccco1 | -12% | 1.25 |
| O=C(C1CCCN1c1nccs1)N1CCOC2CCCCC21 (stereo not drawn) | -14% | 2.16 |
| Cc1nnc(CN(C)Cc2ccc3ccccc3n2)o1 | -21% | 2.06 |
| C[C@](O)(CNS(=O)(=O)CC1CCC(F)(F)CC1)c1ccccc1 | -2% | 0.22 |
| CCC1(C)CN(C(=O)Nc2scnc2C(C)C)C1 | -12% | 1.18 |
| COc1ccccc1N1CCN(C(=O)Cc2c(C)nc3nc(-c4cccs4)nn3c2C)CC1 | -5% | 0.67 |
| CCOC(=O)N1CCC(NC(N)=NCc2ccc(OCC)cc2)CC1 | -1% | 0.09 |
| Cc1nc2c(N[C@@H](CCn3cncn3)c3ccccc3)ncnc2o1 | -2% | 0.42 |
| O=C(NCC1CC1)c1nn(Cc2ccc(F)cc2)c2c1COCC2 | -19% | 2.37 |
| Cc1cnc(C(=O)N[C@@H]2CCC[C@@H]2C(=O)NCc2ccc(N3CCOCC3)cc2)cn1 | -9% | 1.21 |
| O=C1NCC2(CCN(Cc3cc4n(n3)CCN(Cc3cccs3)C4)CC2)O1 | -1% | 0.16 |
| CCOC(=O)CC(=O)Nc1cc(C)ccc1S(N)(=O)=O | -21% | 2.67 |
| CCOC(=O)c1cn2c(n1)N(C(=O)c1ccccc1OCC)CCC2 | 1% | -0.07 |
| Cc1n[nH]c(CN2CCN(Cc3ccc4c(c3)OCO4)C(=O)C2)n1 | -2% | 0.44 |
| C[C@H]1CCCN(CCCNC(=O)c2cc3occc3c(Nc3ccc(F)cc3)n2)C1 | -3% | 0.33 |
| Clc1cccc(N2CCN(Cc3ccc(OC4CCNCC4)cc3)CC2)c1 | 30% | -1.28 |
| CCCCCC1CCC(c2ccc(-c3ccc(CCC)cn3)cc2F)CC1 (stereo not drawn) | -5% | 0.62 |
| O=C(NC[C@]1(O)CCCN(C(=O)c2cccs2)CC1)N1CCOCC1 | 2% | -0.41 |
| CCn1cnnc1[C@H]1CCCN(CC(=O)N(C)Cc2ccc(F)cc2)C1 | -9% | 1.22 |
| CC(C)(C)C(=O)N1CC[C@H](Oc2cccc3cccnc23)C1 | -24% | 4.54 |
| Cc1cc(F)cc2c(=O)c(C(=O)N3CC(C)(C)C3(C)C)c[nH]c12 | -7% | 0.79 |
| O=C(CCOc1cccc(F)c1)N1C[C@@H]2CS(=O)(=O)C[C@@H]2C1 | -6% | 0.72 |
| Cc1nn(-c2ccc(C(F)(F)F)cn2)c(C)c1CC(=O)N1CCN(c2ncccn2)CC1 | -2% | 0.36 |
| CCC1(CC)CN(C(=O)NC2Cc3ccccc3C2)C1 | -3% | 0.49 |
| COc1ccc(CNS(=O)(=O)N(C)C2CC2)cc1OC | 6% | -0.76 |
| CC1(C)C(=O)NCCN1C(=O)c1ccc2nccnc2c1 | 36% | -0.79 |
